From the supplement of paper PMC10126150 come the findings set out here.

In this data set the test system is ATP. The data set is described as follows: switch fluorescence ratio, 500 uM ATP over buffer (Cy3 cluster intensity, sum of 5 cycles each) (fold (ratio)); higher = stronger signal-on switching upon ATP binding; sequences stand for … in TCGTCGGCAGCGTCAGATGTGTATAAGAGACAGTTTTTTTTTTTTTTTTTTTTTTTTT…TC. The following applies: aptamer strand: ATP DNA aptamer (quencher-CACCTGGGGGAGTATTGCGGAGGAAGG + anchor), 100 nM annealed; ATP concentration: 500 uM; one replicate. The method in brief: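 The fluorescence ratio divides summed target-cycle Cy3 intensity by summed buffer-cycle Cy3 intensity for each cluster and is averaged per switch-domain sequence. Cy3-labelled switching-strand clusters on a modified Illumina MiSeq flow-cell were annealed to 100 nM quencher-labelled ATP aptamer, then imaged in selection buffer and again after 15 min with 500 uM ATP at 22 °C. Five such cycles were run, with NaOH stripping and re-annealing between them, and clusters outside 100-1000 RFU were excluded.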

Sequences with one replicate were seen in a single cluster, so their values are uncertain.
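Note: ATP exposure 15 min at 22 °C before imaging.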

Turning to GTAGTCCATA, the switch fluorescence ratio worked out at 1.03.
The value for GGGGCAAATC was 1.11; that for TCTTAAGCAG was 1.01; that for TGCGAATACA was 1.15.
For ATTGAATTG the value was 0.974; for TGGCGTTAAT, 1.01.
For TATTGGATAA the value was 0.948; for GCTCCTGGGA, 1.31; for AATTTTATCA, 1.05.
On to TGGCCTTTC, for which the switch fluorescence ratio is 1.36.
Turning to ATTGATTAC, the switch fluorescence ratio worked out at 1.03.
Regarding GGTCGATCA, the switch fluorescence ratio came out at 0.955.
In the case of AACCACGGTG, the switch fluorescence ratio was found to be 1.92.
For ACGGTGGGCA the value was 1.03.
TTATTTCCTG: the switch fluorescence ratio is 0.984.
Consider TCGCCCATC, for which the switch fluorescence ratio turned out to be 1.13.
For CACGGGCGCT the value was 1.03; for GCTGACTCGT, 0.967; for CAGCGGCCGT, 1.02.
For TTATAATCGA the value was 0.953; for ATCTGATGG, 1.1.
On to CGTGATGCGG, for which the switch fluorescence ratio turned out to be 0.98.
For TGGGGCAGGA the value was 0.977; for TTCTTTGAC, 0.993.
As for ACGAATAGCA, the switch fluorescence ratio came out at 1.06.
Turning to AGTTTTGAGT, the switch fluorescence ratio stood at 0.99.
Turning to ATAGTCTGTG, the switch fluorescence ratio was 0.961.
GATTGCGTTC: the switch fluorescence ratio turned out to be 0.967.
The value for GTTATTACCA was 1.01; that for TGCAACGCTC was 1.08.
Consider AAATTGGAAT, for which the switch fluorescence ratio came out at 0.977.
On to ATATACTTGG, for which the switch fluorescence ratio was 1.05.
The value for AATCGTTCAC was 0.975.
As to GATTAGGTCG, the switch fluorescence ratio turned out to be 1.02.
Turning to TACTTAGACG, the switch fluorescence ratio is 1.08.
Take GCCGGTACAG: the switch fluorescence ratio was determined as 1.
The value for CGTGTCGTCG was 1.12; that for CGCAACCTAG was 2.14; that for GGTGACGGTT was 1.01.
For TTGCAAGTGA the value was 1.01.
Regarding TCTATGCTGG, the switch fluorescence ratio is 1.
TATGTAGCCA: the switch fluorescence ratio stood at 1.
The value for CAAGATCTT was 1.02.
Turning to GTTAATGTAG, the switch fluorescence ratio is 0.975.
For GTAGTAGACG the value was 1.03; for TCTATACGAC, 1.28.
For GGCCCGGT the value was 1.01.
As for TCAGTTGGGT, the switch fluorescence ratio worked out at 0.948.
For ATCTGCTGCT the value was 1.01; for GAGATACTAT, 1; for TAAGGCCGTC, 0.999.
The value for TCAGGCT was 1.04.
With GATGAGAGAT, the switch fluorescence ratio is 0.97.
The value for TTACTATGT was 1.02; that for ATGTAGTAAT was 1.01; that for TTATGCTGAG was 0.965.
Turning to GGAATCGTGG, the switch fluorescence ratio came to 0.956.
Turning to CACCCTTCGC, the switch fluorescence ratio was found to be 2.4.
For AAGGCAATTG, the switch fluorescence ratio was 1.03.
Turning to CGCGTGCACA, the switch fluorescence ratio was determined as 1.11.
On to TTTTCAATAT, for which the switch fluorescence ratio was 1.9.
Take TAGGTGGTAG: the switch fluorescence ratio stood at 1.01.
The value for CATGTCGCTT was 0.996.
For GGTAAAGAAG the value was 0.992.
Turning to GGTGAAGGGT, the switch fluorescence ratio is 0.998.
The value for GGTGCGCATT was 1.04.
Consider ATTGAAATAC, for which the switch fluorescence ratio is 1.52.
The value for ATGATGTCAG was 0.97; that for CACCGTTATA was 1.56.
As for CTTATCGGAA, the switch fluorescence ratio came to 1.09.
In the case of GAGCATCCTT, the switch fluorescence ratio was 0.99.
On to CTTCTACTAG, for which the switch fluorescence ratio stood at 1.03.
Regarding GCATGACCAT, the switch fluorescence ratio stood at 0.981.
Take ATACAGAGAT: the switch fluorescence ratio is 0.989.
Take CACCGCGATC: the switch fluorescence ratio was 2.73.
For AAAGCTGAGC the value was 0.958; for TGCCAACGGT, 0.968.
For GTTTACCCGT the value was 1.01; for GCTGTAAAGG, 1; for CCGGGGTTCT, 1.03.
As for AAACTGCTTC, the switch fluorescence ratio came out at 1.05.
GACGCCTTTG: the switch fluorescence ratio worked out at 0.983.
For the sequence CTTATCATTT, the switch fluorescence ratio worked out at 0.993.
As for AAGTGTTCAC, the switch fluorescence ratio is 1.05.
The value for ACGGATCGCG was 1.
CCAACCGTCT: the switch fluorescence ratio amounted to 1.1.
The value for TTAGAAAGG was 1.02; that for TGTAAATTGC was 1.13.
The value for TCGTTCAGCC was 0.982; that for TAAAAGCGTA was 1.03.
For ACTTAGGATG the value was 1.06; for TTGATAGCTG, 1.03; for GTTCCGGATG, 1.02.
For the sequence TGCTAGACGG, the switch fluorescence ratio came to 1.02.
For the sequence TGTCGGGAAT, the switch fluorescence ratio was 1.05.
As to GAACGAGTCA, the switch fluorescence ratio amounted to 0.971.
For CTCCATCATA, the switch fluorescence ratio is 1.42.
For GCATACATTC the value was 0.993; for GGTAAGGCCC, 1.02; for GCATGGTG, 1.04.
Turning to AGCACTGTGC, the switch fluorescence ratio amounted to 1.
The value for ACAGCGGGAA was 0.943; that for CGATTATTGT was 1.02; that for GATCACTTCA was 1.03.
CCGGATATTC: the switch fluorescence ratio is 2.04.
For ACTCGTGGTA the value was 0.999; for GGAAGTATCA, 0.983.
The value for TCCGGTGCGC was 1.23; that for ACCCACGATG was 1.47; that for ATTGTCGGCG was 1.02.
TCGACCAGAG: the switch fluorescence ratio was found to be 1.09.
Consider TTTGGATTCG, for which the switch fluorescence ratio turned out to be 1.03.
For AGGAGTCAGA the value was 0.982; for ATACGAGCAT, 1.09; for GTGTTGATTG, 0.98.
Take TTCATCCTGG: the switch fluorescence ratio worked out at 1.04.
The value for GATGGTGCAC was 0.998; that for AAAGCCGCTT was 1.08; that for CACGACGCGC was 4.18.
With ACCGCCCCCC, the switch fluorescence ratio came to 3.37.
